# Results reported in the supplement of paper PMC8728848.
# This is one part of the list.
# B1: RBMC1 (Vibrio cholerae) (protein)
# chain: QQSQRVVTADNLMYLRSGFAIDAIGTTVNNLVGGPVQGTNGGVLRAPIALDQLQSVEVTSGLYNWGGYHIVAIKFTMKDGSSVLLGSTHYASNKKVETYTVPQGKRIKQINVWTGGWLVEGFQFVY
# Tests used:
# Assay in all cases: glycan array binding signal (z-score within array); higher = stronger binding
# Conditions in all cases: glycan notation: IUPAC condensed, linker removed
# [1] = target: Gal(b1-4)GlcNAc(b1-2)Man(a1-6)[Man(a1-3)]Man(b1-4)GlcNAc(b1-4)GlcNAc
# How it was run: (§1)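 From the Consortium for Functional Glycomics database, 3228 arrays were curated, keeping only those whose protein sequence was available. Binding is given as a within-array Z-score averaged across arrays sharing a protein sequence and across linkers. Negative Z-scores can be read as non-binding.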
# [2] = target: Gal(b1-4)GlcNAc(b1-2)[Gal(b1-4)GlcNAc(b1-4)]Man(a1-3)[Gal(b1-4)GlcNAc(b1-2)Man(a1-6)]Man(b1-4)GlcNAc(b1-4)GlcNAc
# How it was run: as §1
# [3] = target: Gal(b1-4)GlcNAc(b1-2)[Gal(b1-4)GlcNAc(b1-4)]Man(a1-3)[Gal(b1-4)GlcNAc(b1-2)[Gal(b1-4)GlcNAc(b1-6)]Man(a1-6)]Man(b1-4)GlcNAc(b1-4)GlcNAc
# How it was run: as §1
# [4] = target: Gal(b1-4)GlcNAc(b1-2)[Gal(b1-4)GlcNAc(b1-4)]Man(a1-3)[GlcNAc(b1-4)][Gal(b1-4)GlcNAc(b1-2)Man(a1-6)]Man(b1-4)GlcNAc(b1-4)GlcNAc
# How it was run: as §1
# [5] = target: Gal(b1-4)GlcNAc(b1-2)[Gal(b1-4)GlcNAc(b1-4)]Man(a1-3)[GlcNAc(b1-4)][Gal(b1-4)GlcNAc(b1-2)[Gal(b1-4)GlcNAc(b1-6)]Man(a1-6)]Man(b1-4)GlcNAc(b1-4)GlcNAc
# How it was run: as §1
# [6] = target: Gal(b1-4)GlcNAc(b1-2)[Gal(b1-4)GlcNAc(b1-6)]Man(a1-6)[Gal(b1-4)GlcNAc(b1-2)Man(a1-3)]Man(b1-4)GlcNAc(b1-4)GlcNAc
# How it was run: as §1
# [7] = target: Gal(b1-4)GlcNAc(b1-2)[Gal(b1-4)GlcNAc(b1-6)]Man(a1-6)[Gal(b1-4)GlcNAc(b1-2)Man(a1-3)]Man(b1-4)GlcNAc(b1-4)[Fuc(a1-6)]GlcNAc
# How it was run: as §1
# [8] = target: Gal(b1-4)GlcNAc(b1-2)[Gal(b1-4)GlcNAc(b1-6)]Man(a1-6)[GlcNAc(b1-4)][Gal(b1-4)GlcNAc(b1-2)Man(a1-3)]Man(b1-4)GlcNAc(b1-4)GlcNAc
# How it was run: as §1
# [9] = target: Gal(b1-4)GlcNAc(b1-2)[Gal(b1-4)GlcNAc(b1-6)]Man(a1-6)[GlcNAc(b1-4)][Gal(b1-4)GlcNAc(b1-2)[Gal(b1-4)GlcNAc(b1-4)]Man(a1-3)]Man(b1-4)GlcNAc(b1-4)[Fuc(a1-6)]GlcNAc
# How it was run: as §1
# [10] = target: Gal(b1-4)GlcNAc(b1-3)Gal(b1-3)GalNAc
# How it was run: as §1
# [11] = target: Gal(b1-4)GlcNAc(b1-3)Gal(b1-3)GlcNAc
# How it was run: as §1
# [12] = target: Gal(b1-4)GlcNAc(b1-3)Gal(b1-4)Glc
# How it was run: as §1
# [13] = target: Gal(b1-4)GlcNAc(b1-3)Gal(b1-4)GlcNAc
# How it was run: as §1
# [14] = target: Gal(b1-4)GlcNAc(b1-3)Gal(b1-4)GlcNAc(b1-2)Man(a1-3)[Gal(b1-4)GlcNAc(b1-3)Gal(b1-4)GlcNAc(b1-2)Man(a1-6)]Man(b1-4)GlcNAc(b1-4)GlcNAc
# How it was run: as §1
# [15] = target: Gal(b1-4)GlcNAc(b1-3)Gal(b1-4)GlcNAc(b1-2)Man(a1-3)[Gal(b1-4)GlcNAc(b1-3)Gal(b1-4)GlcNAc(b1-2)Man(a1-6)]Man(b1-4)GlcNAc(b1-4)[Fuc(a1-6)]GlcNAc
# How it was run: as §1
# [16] = target: Gal(b1-4)GlcNAc(b1-3)Gal(b1-4)GlcNAc(b1-2)[Gal(b1-4)GlcNAc(b1-3)Gal(b1-4)GlcNAc(b1-6)]Man(a1-6)[Gal(b1-4)GlcNAc(b1-3)Gal(b1-4)GlcNAc(b1-2)Man(a1-3)]Man(b1-4)GlcNAc(b1-4)GlcNAc
# How it was run: as §1
# [17] = target: Gal(b1-4)GlcNAc(b1-3)Gal(b1-4)GlcNAc(b1-2)[Gal(b1-4)GlcNAc(b1-3)Gal(b1-4)GlcNAc(b1-6)]Man(a1-6)[Gal(b1-4)GlcNAc(b1-3)Gal(b1-4)GlcNAc(b1-2)Man(a1-3)]Man(b1-4)GlcNAc(b1-4)[Fuc(a1-6)]GlcNAc
# How it was run: as §1
# [18] = target: Gal(b1-4)GlcNAc(b1-3)Gal(b1-4)GlcNAc(b1-3)Gal(b1-4)GlcNAc
# How it was run: as §1
# [19] = target: Gal(b1-4)GlcNAc(b1-3)Gal(b1-4)GlcNAc(b1-3)Gal(b1-4)GlcNAc(b1-2)Man(a1-3)[Gal(b1-4)GlcNAc(b1-3)Gal(b1-4)GlcNAc(b1-3)Gal(b1-4)GlcNAc(b1-2)Man(a1-6)]Man(b1-4)GlcNAc(b1-4)GlcNAc
# How it was run: as §1
# [20] = target: Gal(b1-4)GlcNAc(b1-3)Gal(b1-4)GlcNAc(b1-3)Gal(b1-4)GlcNAc(b1-2)Man(a1-3)[Gal(b1-4)GlcNAc(b1-3)Gal(b1-4)GlcNAc(b1-3)Gal(b1-4)GlcNAc(b1-2)Man(a1-6)]Man(b1-4)GlcNAc(b1-4)[Fuc(a1-6)]GlcNAc
# How it was run: as §1
# [21] = target: Gal(b1-4)GlcNAc(b1-3)Gal(b1-4)GlcNAc(b1-3)Gal(b1-4)GlcNAc(b1-2)[Gal(b1-4)GlcNAc(b1-3)Gal(b1-4)GlcNAc(b1-3)Gal(b1-4)GlcNAc(b1-6)]Man(a1-6)[Gal(b1-4)GlcNAc(b1-3)Gal(b1-4)GlcNAc(b1-3)Gal(b1-4)GlcNAc(b1-2)Man(a1-3)]Man(b1-4)GlcNAc(b1-4)[Fuc(a1-6)]GlcNAc
# How it was run: as §1
# [22] = target: Gal(b1-4)GlcNAc(b1-3)Gal(b1-4)GlcNAc(b1-3)Gal(b1-4)GlcNAc(b1-3)Gal(b1-4)GlcNAc(b1-2)Man(a1-3)[Gal(b1-4)GlcNAc(b1-3)Gal(b1-4)GlcNAc(b1-3)Gal(b1-4)GlcNAc(b1-3)Gal(b1-4)GlcNAc(b1-2)Man(a1-6)]Man(b1-4)GlcNAc(b1-4)GlcNAc
# How it was run: as §1
binder,measurement,setting,value
B1,glycan array binding signal (z-score),[1],-0.205
same,glycan array binding signal (z-score),[2],-0.14
same,glycan array binding signal (z-score),[3],1.06
same,glycan array binding signal (z-score),[4],-0.268
same,glycan array binding signal (z-score),[5],-0.317
same,glycan array binding signal (z-score),[6],0.846
same,glycan array binding signal (z-score),[7],0.282
same,glycan array binding signal (z-score),[8],-0.233
same,glycan array binding signal (z-score),[9],-0.382
same,glycan array binding signal (z-score),[10],-0.215
same,glycan array binding signal (z-score),[11],-0.447
same,glycan array binding signal (z-score),[12],-0.275
same,glycan array binding signal (z-score),[13],-0.274
same,glycan array binding signal (z-score),[14],0.855
same,glycan array binding signal (z-score),[15],2.64
same,glycan array binding signal (z-score),[16],0.242
same,glycan array binding signal (z-score),[17],-0.38
same,glycan array binding signal (z-score),[18],-0.299
same,glycan array binding signal (z-score),[19],0.806
same,glycan array binding signal (z-score),[20],2.36
same,glycan array binding signal (z-score),[21],-0.239
same,glycan array binding signal (z-score),[22],1.31
